# PMC4336329 (PLoS ONE, 2015)
# Screen size: about 310,000 compounds; about 14,000 (4.5%) showed an effect of 50% or more. Effects have a minus sign here. The list shows a part of the results. Where a SMILES comes first, the peptide text is derived from it. The star is where a group is joined. Cbz = O=C(OCc1ccccc1)*
# Target: human ether-à-go-go-related gene (hERG) potassium channel (human, UniProt Q12809)
# Experiment: primary screen, population patch clamp on CHO cells stably expressing hERG
# 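Note: peak tail current of the secondary pulse compared with the same well before compound.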
# Sequence of human ether-à-go-go-related gene (hERG) potassium channel (Q12809 whole entry, looked up): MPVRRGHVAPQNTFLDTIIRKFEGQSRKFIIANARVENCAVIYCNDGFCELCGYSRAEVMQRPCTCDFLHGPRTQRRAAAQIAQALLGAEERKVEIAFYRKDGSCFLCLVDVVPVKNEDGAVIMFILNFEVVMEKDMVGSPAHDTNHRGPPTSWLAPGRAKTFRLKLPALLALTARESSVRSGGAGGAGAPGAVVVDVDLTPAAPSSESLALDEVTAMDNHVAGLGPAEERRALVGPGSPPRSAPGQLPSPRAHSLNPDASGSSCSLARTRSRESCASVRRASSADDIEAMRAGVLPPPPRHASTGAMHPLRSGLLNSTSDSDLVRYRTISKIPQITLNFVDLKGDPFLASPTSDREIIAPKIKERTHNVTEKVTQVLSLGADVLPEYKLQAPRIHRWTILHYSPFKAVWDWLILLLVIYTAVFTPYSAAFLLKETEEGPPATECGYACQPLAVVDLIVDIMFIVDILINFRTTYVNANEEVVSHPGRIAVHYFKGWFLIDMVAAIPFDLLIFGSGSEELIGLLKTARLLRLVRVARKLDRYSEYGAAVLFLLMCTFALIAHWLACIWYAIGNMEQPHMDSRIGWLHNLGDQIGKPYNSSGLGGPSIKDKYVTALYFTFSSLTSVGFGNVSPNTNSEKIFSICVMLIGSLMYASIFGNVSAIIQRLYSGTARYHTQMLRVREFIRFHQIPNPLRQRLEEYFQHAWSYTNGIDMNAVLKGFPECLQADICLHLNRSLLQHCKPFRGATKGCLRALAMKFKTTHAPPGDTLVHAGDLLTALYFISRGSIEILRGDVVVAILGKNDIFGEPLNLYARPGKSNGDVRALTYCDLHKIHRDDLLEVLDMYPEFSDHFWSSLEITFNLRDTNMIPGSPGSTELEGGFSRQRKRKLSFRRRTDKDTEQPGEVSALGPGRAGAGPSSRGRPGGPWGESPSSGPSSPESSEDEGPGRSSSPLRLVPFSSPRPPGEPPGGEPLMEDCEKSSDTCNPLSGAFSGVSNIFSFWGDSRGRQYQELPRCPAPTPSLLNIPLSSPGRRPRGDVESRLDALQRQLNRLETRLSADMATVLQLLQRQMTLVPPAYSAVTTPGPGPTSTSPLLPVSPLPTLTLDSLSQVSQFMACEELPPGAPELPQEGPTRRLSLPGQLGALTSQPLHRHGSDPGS
row,Compound,"hERG current change (%, negative = inhibition) at 10uM [%]"
1,COc1ccccc1NS(=O)(=O)c1ccc(O)c(C(=O)OCC(=O)N2CCc3ccccc32)c1,-7.99
2,Cc1cc(C(=O)COC(=O)C2=COCCO2)c(C)n1-c1ccc2c(c1)OCO2,-11.2
3,COc1ccc(C(=O)NC(=S)NNC(=O)CNC(=O)C2CCCCC2)cc1,18.3
4,CCCc1c(C(=O)N/N=C/c2cccs2)nnn1-c1nonc1N,5.75
5,COc1ccc(C2CC(c3ccc(F)cc3)n3nc(NS(C)(=O)=O)nc3N2)cc1 (centres unmarked),8.06
6,Cl.O=C(NN1CCN(Cc2ccccc2)CC1)c1ccc(Cl)cc1,-40.4
7,O=S(=O)(Nc1ccc(F)cc1)c1ccc(NS(=O)(=O)c2cccs2)cc1,-0.231
8,Cc1onc(-c2c(Cl)cccc2Cl)c1C(=O)N1CCCCC1,12.8
9,CCC(O)CC(C(=O)NNc1ccccc1)C(=O)NNc1ccccc1 (centres unmarked),8.98
10,O=C(CSc1nc(-c2ccco2)cc(C(F)(F)F)n1)N1CCCc2ccccc21,2.57
11,Cc1sc(NC(=O)CCC(=O)O)c(C#N)c1C,20.1
12,CCc1ncc(C)[nH]1,7.87
13,COc1ccc(CC(=O)c2ccc(O)cc2O)cc1,-3.19
14,CCOc1ccc(OCc2cccc(C(=O)N3CCCCCC3)c2)cc1,-69.3
15,CC(=O)c1ccc(N2CCN(S(=O)(=O)c3ccc4c(c3)CC(C)N4C(=O)C3CC3)CC2)cc1 (centres unmarked),24.1
16,O=C(N/N=C/c1ccc(-c2cccc([N+](=O)[O-])c2)o1)c1ccc([N+](=O)[O-])cc1,-40
17,COC(=O)c1ccc(CN2CCC(CO)(Cc3cccc(OC)c3)CC2)cc1,-66.1
18,CC(C)(C)OC(=O)N1CCC(C(=O)N[C@H](C(=O)O)c2ccccc2)(c2ccccc2)CC1,8.49
19,Cc1cc(C)n(C2CC(=O)N(c3cccc(Cl)c3)C2=O)n1 (centres unmarked),-1.18
20,COc1ccc(NC(=O)COC(=O)/C=C/c2ccc(OC)c(S(=O)(=O)N3CCOCC3)c2)cc1,-25.8
21,COc1ccc(OC)c(NC(=O)c2csc(Cl)c2OC)c1,5.4
22,Cc1ccc(NC(=O)C2CCC(CNC(=O)[C@@H]3Cc4ccccc4CN3)CC2)cc1 (some centres unmarked),-25.8

row,Compound,"hERG current change (%, negative = inhibition) at 10uM [%]"
1,C/C(=N\O)c1ccc2[nH]ccc2c1,4.89
2,CCCOC(=O)CSc1nc(N2CCOCC2)c2c(c1C#N)CC(C)(C)OC2,-40.5
3,CCc1ccc(C2CC(=O)N(c3ccc(F)cc3)C3=C2C(=O)OC3)cc1 (centres unmarked),-27
4,Cc1ccc(C)c(-c2cc(C(=O)NC3CC3)c3ccccc3n2)c1,-61.1
5,COc1ccc(C2=NN(C(=O)CCC(=O)O)C(c3ccccc3OC)C2)cc1 (centres unmarked),10.6
6,OC(COC(c1ccccc1)c1ccccc1)CN1CCN(c2ccccn2)CC1 (centres unmarked),-74.7
7,COC(=O)C1=C(c2ccccc2)C[C@@H]2CC[C@H]1N2C(=O)NCC1CC1,1.45
8,CC(C)N1C(=S)SC(C)(C)C1n1oc(=O)n(-c2ccc(Cl)c(Cl)c2)c1=O (centres unmarked),-6.25
9,CC(Sc1nnc(C(F)(F)F)n1C)C(=O)NC(N)=O (centres unmarked),5.23
10,COc1ccc(C(=O)CCC(=O)Nc2ccc(N3CCCCC3)cc2)cc1OC,9.35
11,OCC[C@@H]1C[C@H](O)[C@@H](O)[C@]2(CCc3ccccc3O2)O1,27.4
12,CCC(O)C1CCN(C(=O)c2cc(COc3ccc(F)cc3F)on2)CC1 (centres unmarked),1.82
13,S=C(NCc1ccccc1)NCc1cccc(CNC(=S)NCc2ccccc2)c1,21.7
14,CC(C)C(NC(=O)OCc1ccccc1)C(=O)NC(Cc1ccc(O)cc1)C(=O)O (stereo not drawn) (Cbz-Val-Tyr-OH; configuration not given here),13.6
15,Cn1cccc1C(=O)NC(=O)COC(=O)c1ccccc1O,-6.93
16,Cc1ccc(COc2ccc(S(=O)(=O)N3CCCC3)cc2C(N)=O)cc1,18.6
17,CNC(=O)/C(C#N)=C/c1c(N(Cc2ccccc2)Cc2ccccc2)nc2c(C)cccn2c1=O,1.97
18,O=C(N/N=C/c1ccc[nH]1)c1cccc(Br)c1,-13.6
19,Cc1ccccc1S(=O)(=O)Cc1ccc(C(=O)N2CCN(c3cccc(C)c3C)CC2)o1,-15.1
20,Cn1c(=O)c2ncn(CC(=O)Nc3nc(-c4ccc(Cl)cc4)cs3)c2n(C)c1=O,12.1
21,CC(C)C(=O)NC(=S)Nc1sc2c(c1C(N)=O)CCCC2,13.5
22,COC(=O)C1=C(C)N(Cc2ccccc2)C(=NCc2cc(OC)c(OC)c(OC)c2)N[C@H]1c1cccc(F)c1,-23

row,Compound,"hERG current change (%, negative = inhibition) at 10uM [%]"
1,C=CCn1c(COc2cccc(C)c2)nnc1SCC(=O)c1c[nH]c2c(CC)cccc12,16.5
2,O=C(OCC(=O)c1ccc[nH]1)c1ccc(Cl)nc1,-5.61
3,Cc1ccc(-n2c(C)cc(C(=O)OCC(=O)N(CC(C)C)C3CCS(=O)(=O)C3)c2C)cc1 (centres unmarked),5.94
4,CCN(c1ccccc1)S(=O)(=O)c1ccc(OC)c(NC(=O)CCc2nc3ccccc3c(=O)[nH]2)c1,-51.2
5,CCN(CC)C(=O)CN(Cc1ccccc1)S(=O)(=O)c1ccc(F)cc1,-0.66
6,Clc1ccc(-c2csc3ncnc(N4CCc5ccccc5C4)c23)cc1,-3.52
7,C/C(CC(=O)Nc1c(C)cc(C)cc1C)=N\NC(=O)Cc1ccccc1,-1.97
8,CCCCOc1ccc(C(=O)NCC2(c3ccc(OC)cc3)CCOCC2)cc1,-42.3
9,CC1(C)CN=C(Nc2ccc(F)c(F)c2)S1,10.3
10,N=Cc1c(O)n(-c2ccc(C34CC5CC(CC(C5)C3)C4)cc2)c(=O)[nH]c1=O,1.23
11,CS(=O)(=O)N(CC(=O)NC1CC2CCC1C2)c1cccc(C(F)(F)F)c1 (centres unmarked),2.48
12,Cc1cc(N(C)C)c(C#N)c(=O)[nH]1,14.1
13,CCOc1ccc(OCC)c(NC(=O)CSc2nc3cccnc3n2C)c1,-23
14,O=C(O)C(Cc1ccccc1)N1C(=O)/C(=C/c2cccnc2)SC1=S (centres unmarked),14
15,COc1ccc(NC(=O)c2cc3c(s2)CCC(C)C3)cc1S(=O)(=O)N1CCOCC1 (centres unmarked),-19.1
16,CS(=O)(=O)Nc1cccc(-c2cn3c(n2)SCC3)c1,23.6
17,Cc1cccc(N2CCN(C(=O)Cn3ccc4ccccc4c3=O)CC2)c1C,-23.1
18,O=C(Cc1ncc(C(F)(F)F)cc1Cl)NC1CC1,8.6
19,Cn1c(-c2csc(-c3ccccc3)n2)n[nH]c1=S,25.6
20,CC(NC(=O)c1ccco1)C(=O)NC(C)c1cc(F)c(Cl)cc1Cl (centres unmarked),22.5
21,CCOC(=O)N1CCN(C(=O)CCCn2nnnc2CN2CCC(C)CC2)CC1,13
22,O=C(Nc1nnc(C2CC2)s1)c1cc(-c2ccccc2)nn1-c1ccccc1,2.63

row,Compound,"hERG current change (%, negative = inhibition) at 10uM [%]"
1,CCOC(=O)c1cn(-c2c(Cl)cccc2Cl)c2cc(Cl)c([N+](=O)[O-])cc2c1=O,-4.21
2,COc1cc(C2/C(=C(\O)c3ccc4c(c3)CC(C)O4)C(=O)C(=O)N2c2nnc(C)s2)cc(OC)c1OC (centres unmarked),9.14
3,COC(=O)C1CCN(C(=O)/C(C)=C\c2ccccc2)CC1,2.91
4,O=C(NCCc1c[nH]c2ccccc12)c1ccc(-n2cnnn2)cc1,-31.1
5,Cc1ccc(CN(C(=O)COc2ccc([N+](=O)[O-])cc2)C2CCS(=O)(=O)C2)o1 (centres unmarked),-34.4
6,O=C(C1CCCCC1)N1CCc2ccccc21,11.7
7,CCC(=O)Nc1nnc(SCc2ccccc2F)s1,11.4
8,CN(CC(=O)Nc1nc2ccc(F)cc2s1)S(=O)(=O)c1ccc(Cl)cc1,11.9
9,COc1cc(C(=S)N2CCOCC2)ccc1OS(=O)(=O)c1ccccc1[N+](=O)[O-],-1.24
10,COc1ccc(NC(=S)N2CCCN(Cc3cccc(Cl)c3)C2)cc1,-38.6
11,COC(=O)C1CCN(C(=O)COC(=O)CC(NC(C)=O)c2ccccc2)CC1 (centres unmarked),9.35
12,CCc1c(C)sc(NC(=O)c2cc(CC(C)C)on2)c1C#N,11
13,C=C1CCC(OC(C)=O)C2(C)CCC3C(C)C(=O)OC3C12O (centres unmarked),14.4
14,Cc1n[nH]c(C)c1S(=O)(=O)N1CCCCCC1,-13.9
15,Cc1nn(C)cc1S(=O)(=O)N1CCN(Cc2ccc(F)cc2Cl)CC1,-15
16,CCSc1ncc(Cl)c(C(=O)Nc2cc(C)ccc2C)n1,9.9
17,O=C(NCCCN1CCOCC1)C(=O)N/N=C/c1cccc2ccccc12,-27
18,O=c1oc2ccccc2n1Cn1c(=O)oc2ccccc21,14.4
19,O=c1cc(O)c(-c2ccccc2Cl)c(Cl)[nH]1,8.23
20,COc1ccccc1C(=O)COC(=O)CSC(C)C(=O)Nc1cc(C)on1 (centres unmarked),-13.7
